# Measured values taken from ChEMBL document CHEMBL4888484, “Replenishing the malaria drug discovery pipeline: Screening and hit evaluation of the MMV Hit Generation Library 1 (HGL1) against asexual blood stage Plasmodium falciparum ,using a nano luciferase reporter read-out” (2022).
# Out of some 150,000 compounds screened, about 540 (0.36%) showed an effect of 50% or more. Some of the results follow.
# System: Plasmodium falciparum
# Assay: Primary screen in NF54 nanoGlo assay, in single point, at 2uM, 72h; a lower Z score goes with more inhibition
# Assay type: functional, Erythrocyte
# Conditions: timepoint 72 hour
SMILES,% Inhibition [%],Z score
Cc1nnc(O)nc1N1CCN(c2ccccc2)CC1,1,-0.15
Cn1cc(C(=O)NC2CCN(Cc3ccccc3)CC2)cn1,-8,1.44
CS(=O)(=O)N1CCC(c2ccnc3ccccc23)CC1,-11,1.02
Cc1ccc(CN[C@H](C)c2nnc3n2CCCCC3)c(Cl)c1,0,-0.04
Cc1c(C(=O)N2CC(C)(C)Oc3ccccc32)cnn1-c1ccncc1,17,-1.93
Cc1noc(C)c1NC(=O)C(=O)N[C@@H](C)c1ccc(C(C)(C)C)cc1,-11,1.11
CCC1=N[C@@H](c2ccc(O)cc2)N(O)C1(C)C,6,-1.11
O=C(CN1CCCCC1=O)N[C@@H]1COCC[C@@H]1Oc1cccc(F)c1,-1,0.11
CCc1nn(C)cc1C(=O)N[C@@](C)(CC)CO,-5,0.73
Cc1ccc(-n2[nH]c(C(=O)N(C)[C@@H](CCc3ccccc3)C(F)F)cc2=O)cc1,-3,0.46
C[C@@H](CNC(=O)c1ccncc1)N1CCCC1,-11,1.73
CCCS(=O)(=O)N(CCOC)CC(=O)N(Cc1ccc(Cl)cc1)C1CCN(C(=O)Nc2c(C)cccc2C)CC1,-21,2.09
NC(=O)c1ccc(Br)cc1F,-3,0.34
COc1cccc(CC(=O)N2CCC3(CCCCO3)CC2)c1,2,-0.25
CCOc1cc(-c2noc(CCCC(=O)N3CCCCC3)n2)ccc1OC,-5,0.91
Brc1cc(CNCc2cccnc2)cc2c1OCO2,2,-0.27
COc1ccc(-c2cc(C(F)(F)F)nc(-n3nc(-c4cccc(OC)c4)c(Cl)c3-c3cccc(OC)c3)n2)cc1,91,-10.21
CCS(=O)(=O)c1ccc2oc(-c3cccc(OS(=O)(=O)c4ccccc4OC(F)(F)F)c3)nc2c1,-23,2.27
CCN1CCN(C(=O)c2cccc(-c3cccc4c(O)cc(C)nc34)c2)CC1=O,-2,0.32
Cc1cc2c(cn1)CN(C(=O)[C@H]1CCC(=O)N(C(C)C)C1)C2,-2,0.25
O=C(NC1CCN(Cc2ccccc2)CC1)c1ccc2ccccc2n1,-6,0.91

SMILES,% Inhibition [%],Z score
CC(C)CN1C(=O)[C@H](Cc2ccccc2)NC12CCN(C(=O)c1ccc(Cl)cc1)CC2,33,-4.78
C[C@H]1CCCCN1CCCNC(=O)c1cc2n(n1)CCN(Cc1c(Cl)cccc1Cl)C2=O,-10,0.97
O=C(C[C@H](c1ccc(OCc2ccccc2)cc1)c1c[nH]c2ccc(Cl)cc12)NCc1ccccc1,-10,1.22
CS(=O)(=O)c1ccc(Cl)c(C(=O)NCc2ccc(S(=O)(=O)N3CCCC3)cc2)c1,2,-0.29
Cc1ccccc1[C@H]1[C@@H](C(=O)N(C)Cc2cccnc2)C[C@@](C)(C(=O)O)N1C,0,-0.02
O=C(Nc1ccccc1N1CCCC1)[C@@H]1Cc2ccccc2O1,34,-4.42
CCOC1CC1C(=O)NCC(O)C(C)C (configuration not stated),8,-1.42
COc1cc(-c2noc(-c3ccccc3)n2)ccc1OCC(=O)Nc1ccccc1,-9,1.78
C=CCn1cc(CN(C)CCN2CCCC[C@@H]2C)c(C)n1,-5,0.66
C[C@@H](CNC(=O)Cc1ccsc1)NC(=O)OC(C)(C)C,-1,0.05
CCn1c(-n2nc([C@H]3CCOC3)nc2CN2CCOC2=O)nc2ccccc21,-5,0.71
O=C(NCC[C@H]1CCC(F)(F)C1)c1cc2n(n1)CCCC2=O,-8,1.08
NC(=O)[C@@H]1CN(Cc2ccn(-c3ccc(Cl)cc3)n2)CCO1,-4,0.65
CC(C)(O)c1cc(CC2(NCc3ccc(C(F)(F)F)cc3)COC2)no1,-10,1.25
Cc1noc(C)c1NC(=O)N1CCC(OCC2CC2)CC1,-9,1.71
Cc1nnc(-c2cc(CCC(C)C)n(-c3cccc(C(=O)NCC(C)C)c3)n2)o1,-9,1.54
C=CCNC(=O)c1cc(Br)ccc1OC,-11,1.96
Cc1cnc(N2CCC[C@H](CN(C)Cc3cccnc3)C2)nc1C,-4,0.49
O=C(NC1CC1)[C@@H]1CNCCN1C(=O)c1cc(=O)c2cccc(F)c2[nH]1,-16,1.52
Cc1nc(-c2ccccc2Cl)sc1CNC(=O)Cn1nc(C2CC2)ccc1=O,-6,1.14
CCS(=O)(=O)N(CCN1CCCCC1)C1CN(C(=O)CCn2cc(C)cn2)C1,-5,0.62

SMILES,% Inhibition [%],Z score
CNC(=O)[C@@H]1C[C@@H](NC(=O)c2cccnc2OC)CN1Cc1ccsc1,5,-0.69
CCOc1ncccc1C(=O)N1CC[C@H](c2sccc2C)[C@@H](O)C1,-5,1
COc1ccccc1CN[C@H]1[C@H](O)[C@@H](N2CCN(C(C)=O)CC2)[C@@H]2OC[C@H]1O2,4,-0.64
C[C@H](NC(=O)C1CCN(S(=O)(=O)c2ccc(Cl)cc2)CC1)C(=O)N1CCCc2ccccc21,6,-0.73
O=C(Nc1cnn(C[C@H]2COc3ccccc3O2)c1)N1CCOCC1,11,-1.43
CC(C)(C)c1noc(COc2nsnc2N2CCOCC2)n1,-3,0.39
CC(NC(=O)C1CCC(=O)N1)c1ccc(-c2cccnc2)cc1 (configuration not stated),-3,0.48
O=C(c1cc(-c2ccccc2)n[nH]1)N1CC[C@@H](c2cccs2)S(=O)(=O)CC1,-10,1.64
Cc1cc(NCc2sncc2Br)nc(C)n1,-4,0.45
CN(Cc1cc(F)ccc1Cl)CC(C)(C)S(C)(=O)=O,-5,0.54
COc1ccc2[nH]nc(C(=O)N3CCC([C@H](C)N4CCN(C)CC4)CC3)c2c1,-2,0.22
OCC#Cc1csc(CN2C[C@H](O)[C@@H](F)C2)c1,-6,0.81
CCc1csc(CC2CCN(C(=O)CCc3ncccn3)CC2)n1,-18,2.94
CC(C)(C)n1nnc(CNC(=O)NCc2ccccc2-c2ccc(Cl)cc2)n1,0,0
CO[C@H]1COCC[C@@H]1Nc1ncc(C#N)c(N)n1,6,-0.6
C=CCONC(=O)Nc1ccc(Br)cc1,-13,1.71
Cc1nnc(CN2CC[C@@H]3OCc4cccc(c4)Oc4cc(ccc4C)C(=O)N(C)CC(=O)N[C@@H]3C2)s1,-5,0.97
Cc1cc(O)ccc1C(=O)N1CC[C@H](S(=O)(=O)NC2CC2)C1,-1,0.09
COc1cccc(C(=O)COc2cccc(N3C(=O)C4C5CCC(C5)C4C3=O)c2)c1 (configuration not stated),-5,0.67
CS(=O)(=O)N1CCC[C@@H]1CNC1CCc2cc(Cl)ccc21 (some centres not stated),-12,1.26
COc1ccc(C(=O)Nc2ccc3nc4c(c(Nc5ccc(OC)c(OC)c5)c3c2)CCCC4)c(OC)c1,-8,0.97

SMILES,% Inhibition [%],Z score
COC(=O)[C@@](C)(O)CNc1ccc(C#N)cn1,-11,1.48
CS(=O)(=O)N1CC(N2CC(F)(F)C[C@H]2C(=O)N2CCc3ccccc3C2)C1,-9,1.04
O=c1cc(CN2CCN(c3ccccc3)CC2)ccn1CC1CC1,-9,0.94
COc1ccc(CCN2C(=O)[C@H](CC(=O)NCCn3ccnc3C)N=C2O)cc1,-2,0.27
Cc1cccc2sc(OC3CN(C(=O)C4CCN(S(C)(=O)=O)CC4)C3)nc12,-11,1.26
O=C(Cc1ccsc1)N1CCN(c2ccccn2)CC1,35,-3.92
CCOc1ccc(S(=O)(=O)N(Cc2cccn2C)C2CC2)cc1F,2,-0.34
CC(=O)c1cccc(C(=O)N2CC[C@@]3(CCCN(CC4CC4)C3=O)C2)c1,-20,1.99
Cc1cc(C)n2nc(C(=O)N3CC(n4cc(CN5CCCC5=O)nn4)C3)nc2n1,-6,1.12
Cc1nc(CN2CCC(C(=O)O)(n3ccc(C(C)C)n3)CC2)c[nH]1,10,-1.76
Cn1cc(N2C[C@@H](C(=O)NCCc3noc4ccccc34)CC2=O)cn1,-8,1.25
O=C(Nc1cnn(CC(=O)N2C[C@H]3CCC[C@@H]2C3)c1)c1ccc2c(c1)OCO2,24,-3
Cc1cc(N)n(CC(=O)NCc2csc3c2CCCC3)n1,5,-0.98
Cc1nccn1-c1ncnc2cc(F)ccc12,2,-0.31
CCCNC(=O)N1[C@H](COc2cccnc2)CN(C)C(=O)[C@@H]1Cc1ccccc1,-3,0.52
COc1ccccc1CCNC(=O)[C@@H]1C[C@H](n2cnnn2)CN1CC1CCCCC1,4,-0.73
CCc1ncc(C(=O)N[C@@H](Cc2ccccc2)C(=O)O)s1,-11,1.29
O=C(C(=O)N1CCN(c2ccccc2F)CC1)c1ccc2c(c1)CCC2,-4,0.8
